PubChem BioAssay (Tox21)
Where “and” joins values, the source holds several entries; their conditions need not be identical. Identical values can stand only once. The shares of active, inactive and inconclusive entries below differ from those in the screen. Potencies beside an inconclusive call are fits to weak or partial responses and may not hold up. The source holds several records for some structures; these can differ, active in one and inactive in another. Calls of active or inactive are those of the source. Unless noted, calls come from the whole dose curve; as a rule, active = well fitted curve in the direction sought with a large enough effect in the repeat runs; inconclusive = weak or mixed curves; inactive = no such curve, though single readings can be large; an effect the other way counts as inactive or inconclusive.

system: not listed separately; assay: qHTS assay to identify small molecule antagonists of the estrogen receptor alpha (ER-alpha) signaling pathway using the BG1 cell line (AID 743080; calls by dose curve;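 note: BG1 cells stimulated with 17beta-estradiol alongside compound; nearly all actives have a fitted effect of over 25% in size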); conditions: BG1Luc4E2 ERE-luciferase antagonist mode, luminescence; activity change, negative = inhibition: at 70.3 µM (top of the series) unless noted
In short: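 Luminescence from a 4×ERE-luciferase reporter in BG1-Luc-4E2 cells served as read-out. Cells, pre-cultured 5 days in stripped-serum phenol-red-free medium, were exposed to compound with 17beta-estradiol co-stimulation for 21.5 h at 37 C.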
% is set by controls: 0 for no effect and ±100 for the full control effect; potency is the fitted concentration of half-maximal effect; tags give direction and shape of the fitted curve.

SMILES	Potency	activity change, negative = inhibition
c1ccc(Nc2cccc3ccccc23)cc1	inconclusive: 31 µM [rising, partial curve]	–
CCCCCCCCCCOCC(O)CN (centres undefined)	–	inactive: 2.39%
CCCCC(CC)COC(=O)c1ccc(N(C)C)cc1 (centres undefined)	inconclusive: 7.7 µM [rising, full curve, poor fit]	–
O=c1[nH]sc2ccccc12	–	inactive: -9.57%
CCOC(=O)C1=C(C)NC(C)=C(C(=O)OCC)C1c1ccccc1/C=C/C(=O)OC(C)(C)C	active: 33.5 µM	–
C=CCc1cc(S(=O)(=O)c2ccc(O)c(CC=C)c2)ccc1O	active: 61.1 µM	–
Cc1ccc(S(=O)(=O)NC(=O)NN2CCCCCC2)cc1	inactive	–
CCOC(=O)N1CCC(=C2c3ccc(Cl)cc3CCc3cccnc32)CC1	active: 61.1 µM	–
NC(=O)n1c(O)c(C(=O)c2cccs2)c2cc(Cl)ccc21	active: 29.8 µM	–
Cc1ccc(O)c2ncccc12	–	inactive: -12.4%

system: not listed separately; assay: qHTS assay to identify small molecule antagonists of the estrogen receptor alpha (ER-alpha) signaling pathway using the BG1 cell line - cell viability counter screen (AID 743081); conditions: BG1Luc4E2 viability, CellTiter-Fluor, 22 h; series mostly up to 70.3 µM; activity change, negative = cytotoxicity: at the top concentration;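 note: compound given together with 17beta-estradiol as the ER stimulus; nearly all actives have a fitted effect of over 45% in size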

SMILES	Potency
Cc1ccc(S(=O)(=O)Oc2ccc(N=Nc3ccc(-c4ccc(N=Nc5c(O)ccc6cc(S(=O)(=O)O)cc(S(=O)(=O)O)c56)c(C)c4)cc3C)cc2)cc1	active: 30.8 µM and active: 15.9 µM
CC(C)(C)c1ccc(C(=O)CCCN2CCC(OC(c3ccccc3)c3ccccc3)CC2)cc1	inconclusive: 29.8 µM [cytotoxic, single point]
O=C1NCN(c2ccccc2)C12CCN(CCCC(c1ccc(F)cc1)c1ccc(F)cc1)CC2	active: 26.6 µM
CC(CN1c2ccccc2Sc2ccccc21)N(C)C (centres undefined)	inconclusive: 34.7 µM [cytotoxic, partial curve, poor fit]
COc1ccc(CN2CCN(C(c3ccc(F)cc3)c3ccc(F)cc3)CC2)c(OC)c1OC	inconclusive: 26.6 µM [cytotoxic]
CCCCC(CC)COC(=O)c1ccc(N(C)C)cc1 (centres undefined)	inactive
CN1CCN(CCCN2c3ccccc3Sc3ccc(Cl)cc32)CC1	inconclusive: 11.9 µM [cytotoxic, partial curve, poor fit]
O=C(Nc1ccc(Cl)cc1)Nc1ccc(Cl)c(Cl)c1	inconclusive: 68.2 µM [cytotoxic, single point]
O=c1c(O)c(-c2ccc(O)cc2)oc2cc(O)cc(O)c12	inconclusive: 60.9 µM [cytotoxic, partial curve, poor fit]
O=C(NO)c1ccccc1	inconclusive: 65.3 µM [cytotoxic, single point]
CC(C)c1cccc(C(C)C)c1N1C(=O)c2ccc(O)cc2C1=O	inconclusive: 30.6 µM [rising, partial curve]
CC(C)(C)c1ccc(O)c(C(C)(C)C)c1	inconclusive: 68.3 µM [cytotoxic, single point]
CCCCCCCCCCCCc1ccccc1O	active: 67.7 µM and inconclusive: 61.1 µM [cytotoxic, partial curve]
CN(C)c1ccc(C(=C2C=CC(=[N+](C)C)C=C2)c2ccccc2)cc1	active: 9.69 µM
NC(=O)n1c(O)c(C(=O)c2cccs2)c2cc(Cl)ccc21	inconclusive: 33.5 µM [cytotoxic, single point]
CCCCC(CC)COC(=O)CC(C(=O)OCC(CC)CCCC)S(=O)(=O)O (centres undefined)	inconclusive: 1.19 µM [cytotoxic, partial curve] and inconclusive: 13.3 µM [cytotoxic, partial curve]
Cc1ccc(O)c2ncccc12	inconclusive: 15 µM [cytotoxic, partial curve]

molecular target: Aromatase (Homo sapiens) (UniProt P11511); assay: qHTS assay to identify aromatase inhibitors (AID 743083); conditions: MCF-7 aro ERE, testosterone-driven ERE luciferase, 24 h; series mostly up to 70.3 µM; activity, negative = inhibition: at the top concentration; note: nearly all actives have a fitted effect of over 55% in size
UniProt P11511, sequence (P11511 whole entry, looked up): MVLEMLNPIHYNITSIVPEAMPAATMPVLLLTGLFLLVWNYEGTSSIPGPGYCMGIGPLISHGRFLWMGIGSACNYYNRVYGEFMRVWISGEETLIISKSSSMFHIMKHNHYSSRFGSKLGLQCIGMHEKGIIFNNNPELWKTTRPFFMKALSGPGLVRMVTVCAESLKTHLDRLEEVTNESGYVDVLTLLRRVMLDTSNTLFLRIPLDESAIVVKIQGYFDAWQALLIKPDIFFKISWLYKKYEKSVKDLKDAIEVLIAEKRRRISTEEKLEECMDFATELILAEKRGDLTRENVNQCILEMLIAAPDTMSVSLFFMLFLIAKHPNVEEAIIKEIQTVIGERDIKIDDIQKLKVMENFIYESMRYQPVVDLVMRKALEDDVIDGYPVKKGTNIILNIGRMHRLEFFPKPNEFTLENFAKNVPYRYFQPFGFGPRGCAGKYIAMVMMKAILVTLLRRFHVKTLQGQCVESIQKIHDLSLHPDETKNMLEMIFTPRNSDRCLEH

SMILES	Potency	activity, negative = inhibition
CCCN(CCC)C(=O)C(CCC(=O)OCCCN1CCN(CCOC(=O)Cc2c(C)n(C(=O)c3ccc(Cl)cc3)c3ccc(OC)cc23)CC1)NC(=O)c1ccccc1 (centres undefined)	inconclusive: 33.5 µM [inhibitor]	–
Cc1ccc(S(=O)(=O)Oc2ccc(N=Nc3ccc(-c4ccc(N=Nc5c(O)ccc6cc(S(=O)(=O)O)cc(S(=O)(=O)O)c56)c(C)c4)cc3C)cc2)cc1	inconclusive: 10.9 µM [inhibitor, partial curve, poor fit] and inconclusive: 15.9 µM [inhibitor, partial curve, poor fit]	–
CC(CN1c2ccccc2Sc2ccccc21)N(C)C (centres undefined)	active: 61.8 µM and inconclusive: 38.6 µM [inhibitor, partial curve, poor fit]	–
COc1ccc(CN2CCN(C(c3ccc(F)cc3)c3ccc(F)cc3)CC2)c(OC)c1OC	–	inactive: -4.86%
O=Nc1ccc(Nc2ccccc2)cc1	inconclusive: 68.9 µM [inhibitor, single point] and inconclusive: 68.6 µM [inhibitor, single point]	–
O=c1c(O)c(-c2ccc(O)cc2)oc2cc(O)cc(O)c12	inconclusive: 48.4 µM [inhibitor, partial curve, poor fit] and inconclusive: 18.4 µM [inhibitor, partial curve]	–
O=C(NO)c1ccccc1	–	inactive: 25.9%
CC(C)c1cccc(C(C)C)c1N1C(=O)c2ccc(O)cc2C1=O	active: 54.5 µM	–
CCOC(=O)C1=C(C)NC(C)=C(C(=O)OCC)C1c1ccccc1/C=C/C(=O)OC(C)(C)C	inconclusive: 13.3 µM [inhibitor, partial curve, poor fit]	–
CCCCCCCCCCCCc1ccccc1O	active: 30.2 µM and active: 27.3 µM	–
CN(C)c1ccc(C(=C2C=CC(=[N+](C)C)C=C2)c2ccccc2)cc1	inconclusive: 33.5 µM [inhibitor, single point]	–
NC(=O)n1c(O)c(C(=O)c2cccs2)c2cc(Cl)ccc21	inconclusive: 33.5 µM [inhibitor, partial curve, poor fit]	–
